# Test results published in PubChem BioAssay (NCI).
# Some structures have more than one record in an assay (separate samples or runs), and their calls can disagree.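 Assay: single dose, 48 h. Readout: percent growth (0 = no net growth; negative = cell death). Active: <10.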 Some entries of the source have several records that differ or are many. The other results are left out here. An entry can have further records. The screen tested this drug many times, at its own concentration, as given; one value stands for one run. Counts like (3×) count equal records among those shown.
# Tests used:
# SW-620 colon = assay: NCI-60 one-dose screen, 48 h (100 = growth as untreated, 0 = no growth, -100 = all killed); settings: 2.5 mM
# MCF7 breast = assay: as above; settings: 2.5 mM
structure (smiles),measurement,setting,value
O=c1[nH]cc(F)c(=O)[nH]1,growth,SW-620 colon; runs of 1994,"inactive: 30.1 (2×), 23.8 (2×), 21.6, 31.1, 24.3, 29.9, 19.3, 15.5, 22.8 (2×), 27.4, 30.3 (2×), 23, 22.3 (2×), 23.5, 20.8, 16.7, 32.8 (2×), 23.2, 32.6 (2×), 23.7, 33.9, 25.5, 23.4, 32, 25.7, 28.2, 17.8, 27.3%"
same,growth,SW-620 colon; runs of 1995,"inactive: 37.7, 18.3 (3×), 23.6, 24.2, 29, 18.9, 27.2, 20.9 (2×), 27.1, 26.5, 28.6, 30.6 (2×), 26.4, 27.7, 31.1, 24.8, 24.7, 32.8, 17.1, 22.9, 32.2, 19, 25.3, 19.6, 30.9, 16.7, 28.3, 10.8, 13.7, 12.1% and active: 0.694, -58.6, 3.7, -12.2, 8.46%"
same,growth,SW-620 colon; runs of 1996,"inactive: 27.8, 12.6, 29.9, 35.1, 26.5 (2×), 26.3, 31.5, 35.3, 15.8, 36.9, 29.3, 32.3 (2×), 11.6, 16.1, 23.2, 13.8 (2×), 23.9, 22.9, 21.5 (2×), 16.3, 35.2, 26.2, 11.2, 29, 18.8, 19.1, 25.1, 13.6, 23.1, 20.1, 14.1, 10.5, 27.5, 27.7, 25.4, 19.7, 42.1, 29.6, 18.7, 10.9, 38.8, 20, 17.6, 31.4, 31.1% and active: 9.48, 5.8, 7.54, 3.01, -9.41, 7.83%"
same,growth,SW-620 colon; runs of 1997,"inactive: 28.1, 40.3, 31 (2×), 95.6, 29.1 (2×), 39.2, 24.8, 27.4, 26.1, 24, 32.3, 22.8, 17.4, 22.9, 18.2, 25.2, 36, 26.5, 22, 23.4 (2×), 14.5, 24.7, 25.3, 28.8, 26.8, 22.2 (2×), 17.2, 21.2, 19, 23.5, 30.3, 31.5, 22.6, 28.6% and active: -100, -22.2, 9.88, 3.03, -47.3, 9.78%"
same,growth,SW-620 colon; runs of 1998,"active: -19.9%, 0.873% and inactive: 38.9, 29.1, 25.3, 50.5, 26.4 (2×), 22.7, 15.2, 21.5, 30.6, 12.6, 28.1, 35.2, 21.2, 34.1, 21.3, 26.1, 22.2, 25.1, 22.9%"
same,growth,SW-620 colon; runs of 1999,"active: -6.85, 5.02, -48.9, 1.72, 3.04, -47.2, 2.34, 1.79, 1.78, -51.4, 6.91, 2.76, 6.44% and inactive: 30.6, 24.6, 32, 27.8%"
same,growth,SW-620 colon; runs of 2000,"active: 5.05, 2.88, 5.87, 2.59%"
same,growth,MCF7 breast; runs of 1993,"inactive: 11.8, 10.3, 11.5, 23.8, 12.5, 15.2, 20.8, 15.7, 13.5, 15.5, 10.7, 12.7, 97.9, 13.2, 72.3, 10.4, 10.5, 10.9, 12.2% and active: 2.98, -3.88, 7.74, -11.2, 7.08, 4.94, -22.1, 9.42, 6.99, 2.61, -6.58, 7.78, 5.82, 5.58, 6.57, 6.54, 6.33, 4.82, 7.3, -10.9, 4.16, 6.05, 2.59, 1.5, 5.32, 4.31, 9.17%"
same,growth,MCF7 breast; runs of 1994,"inactive: 11.1, 10.6 (2×), 13.6, 13.2, 13.8, 18.1, 16.2, 30.9, 28, 27.2, 21.1% and active: 3.11, -66.1, 5.72, 4.95, 2.64, 7, -37.1, 3.79, 3.82, 0.773, 7.72, -53.1, 8.55, -9.68, -8.96, -12.8, 5.63, 5.98, -5.06, 3.83%"
same,growth,MCF7 breast; runs of 1995,"inactive: 30.5, 11.1, 14.2, 41.9, 13.2, 198, 10.6, 17.3, 38, 11.7, 21, 10.5, 10.7, 15.2, 26, 12.7, 20.9, 11.9, 10.1% and active: 4.19, 9.17, -25.4, 2.28, -0.217, -21.8, -13.8, 4.42, -25.8, -28.5, -20, 7.55, 0.786, 0.342, 1.41, 5.62, 7.41, 7.15, -8.64, -23.6, 5.24, 5.88, 4.82, 5.69, 5.44, 6.94, 1.32, 0.0943, 8.7, -3.09, -6.9, 8.88, 5.51, -53.8, -55.6%"
same,growth,MCF7 breast; runs of 1996,"active: 3.98, 5.63, -35.8, 1.69, 0.778, 0.735, -9.06, -2.5, -14.9, -71.3, -100 (9×), -97.9, 5.3 (2×), -1.97, -6.87, 4.88, 0.363, 7.57, -69.9, 5.7, 3.4, -12, -85.6, 0.288, 1.87, 4.1, 6.79, 4.65, 2.47, 8.96, -51.7, 8.36, 0.49, -27.7, 0.527, -96.7, -61.7, 7.24, 4.3, 5.55, 9.59, 3.68, -77.1, -86.9, 4.71, 9.51, 5.72, 2.31, 2.02, -15.5, 3.03, 3.46, 6.24, 3.76, 7.74, 3.23, 7.02, -35.9, 8.99, 2.74, 0.304, -19, 7.37, 4.09, 7.54, 6.06, 3.97, -12.4, 5.48, 6.54, -37.6, -16.7% and inactive: 10.1, 13.6, 98.9, 102, 80.7, 64.7, 22.3, 16.5 (2×), 10.4 (3×), 15.3, 12.2, 18.5, 25.8, 12.8, 10.3, 11.1, 16.2, 11.7, 20.5, 12.1, 10.6, 19.5, 21.3, 12.6, 18.2, 34.9, 37.3, 26.1, 14.2, 13.3, 21%"
